This is one part of the list.
Test system: T1, C. trachomatis L2/434/Bu expressing GFP (CTL2-GFP)
T1 construct: L2/434/Bu GFP intracellular growth in HeLa cells
Design: species or system HeLa; C. trachomatis total inclusion area by high-content imaging, normalised to DMSO
Details: total inclusion area; 28.5 h, 10 µM; inhibitor
Summary of the method: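 Host cell viability was gauged from Hoechst-stained nuclei counts, while chlamydial growth was taken from total inclusion area and inclusion number per well. Cells were fixed and imaged by high-content microscopy once bulk GFP and resorufin fluorescence had been measured.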

Compound	% of control remaining
CC(=O)N1C[C@@H]2CCCCN(CCc3ccc(F)cc3)[C@@H]2C1 [CBK285495]	98.1739
CC(C)Oc1ccc(C(=O)C2=C(O)C(=O)N(CCN(C)C)C2c2ccncc2)cc1 (centres unmarked) [CBK264907]	111.161
COC(=O)CCc1ccc(-c2cnc(N)c(-c3ccc(O)cc3)n2)cc1 [CBK122809]	43.5292
CS(=O)(=O)N(Cc1ccccc1)c1ccc(C(=O)N2CCN(Cc3ccccc3)CC2)cc1 [CBK264134]	82.2905
Cc1ccc(Cl)cc1NC(=O)CCn1cnc2ccccc2c1=O [CBK270103]	102.018
Cc1nnnn1-c1ccc(CC(=O)N2CCc3sccc3C2c2ccco2)cc1 (centres unmarked) [CBK285705]	90.3966
O=C(c1ccco1)N1CCN(c2cc(-c3cccnc3)ncn2)CC1 [CBK037833]	122.183
Cc1nc2cc(C(=O)N3CCc4[nH]c5ccccc5c4C3)ccc2n1C [CBK281842]	80.3627
CC(=O)Nc1ccc(-c2cncc(Nc3ccc(C#N)cc3)n2)cc1 [CBK066009]	138.718
O=C(O)C1CC=CCC1C(=O)NCc1ccc(N2CCCC2=O)cc1 (centres unmarked) [CBK270081]	98.607
CCOC(=O)C(C)n1nc(CC)n2c(cc3ccsc32)c1=O (centres unmarked) [CBK284127]	80.2534
CN(CCN1CCCCC1)C(=O)C1Cc2cc(Cl)ccc2O1 (centres unmarked) [CBK282640]	115.887
O=C(c1ccc2[nH]c(=O)[nH]c2c1)N1CCC2(CCN(C(=O)c3cc(F)c(F)cc3F)C2)C1 (centres unmarked) [CBK131407]	74.5991
NCc1ccc(CN(Cc2cnc(-c3ccccc3)[nH]2)C(=O)Nc2ccc3c(c2)OCO3)cc1 [CBK046158C]	75.2408
c1ccc(C(NCc2cnc(-c3ncccn3)s2)C2CCC2)cc1 (centres unmarked) [CBK304013]	72.6053
Cc1cccc(C(=O)NNC(=O)COc2cccc3ccccc23)c1O [CBK262993]	92.9573
O=C(NCc1cccc(C(F)(F)F)c1)N1CCN(CCN2CCOCC2)CC1 [CBK155671]	93.0344
COc1ccc(OC(C)(C)C(=O)N2CCCC(c3ccc(Nc4ncccn4)cn3)C2)cc1 (centres unmarked) [CBK285970]	101.343
O=C(CN1CCN(Cc2ccccc2)CC1)Nc1cccc(Cl)c1 [CBK267850]	111.093
O=C(C1C2CCCCC21)N1CCC(c2nnc3n2CCCCC3)CC1 (centres unmarked) [CBK283351]	96.5855
COc1cccc2sc(NC(=O)CN3CCOCC3)nc12 [CBK149281]	105.079
Cc1csc(C(Cc2ccsc2)NC(=O)C2CCOC2)n1 (centres unmarked) [CBK285150]	98.8715
Cc1nn(CC(=O)N2CCCCCC2)c(=O)c2cc3sccc3n12 [CBK284084]	94.9429
COc1ccc([C@@]23CC[C@@H](NC(=O)Nc4cccc(C#N)c4)C[C@@H]2N(C)CC3)cc1OC [CBK036448T]	84.5573
CN(CCCC(=O)Nc1nnc[nH]1)S(=O)(=O)c1ccccc1 [CBK267380]	91.1233
Cc1noc2c1[C@H]1[C@H](O)[C@H](O)C[C@H]1C1(CCC1)N2 [CBK303266]	53.1008
COc1ccc(C(=O)N2CCC3(CCCN(C(=O)c4cccnc4)C3)C2)cc1OC (centres unmarked) [CBK131668]	75.4205

Compound	% of control remaining
Clc1cc2nc(OCCCc3ccncc3)c(N3CCCC3)nc2cc1Cl [CBK115774]	87.8308
Cc1cc(OCC(=O)N2CCNC(=O)C2)c2c(C)c(C)c(=O)oc2c1 [CBK307624]	56.4865
CCN(CC)CCCNC(=O)N1CCCC(C(=O)N(CC)CC)C1 (centres unmarked) [CBK156149]	101.482
COC(=O)c1ccc2c(c1)[n+](CCO)c(C)n2CCO [CBK262443C]	102.125
CCOc1ccc(CN(C)C(=O)Cn2nc(C(=O)O)c3ccccc3c2=O)cc1 [CBK297492]	88.9284
CC1CCc2c(sc3ncnc(SC(C)C(=O)OC4CCCCC4)c23)C1 (centres unmarked) [CBK265050]	119.091
CC1CCc2nc3ccccc3c(C(=O)N(C)Cc3cnn(C)c3)c2C1 (centres unmarked) [CBK305749]	28.4369
CCN(CC)S(=O)(=O)c1ccc(C)c(NS(=O)(=O)c2cc(C(=O)O)n(C)c2)c1 [CBK297782]	102.306
COc1ccc(Oc2nccnc2N2CCN(Cc3ccc([N+](=O)[O-])cc3)CC2)cc1OC [CBK083046T]	60.8679
CC(C)NC(=O)Cn1cnc2c1c(=O)n(C)c(=O)n2C [CBK133257]	93.3004
O=C1NN=C(CSCCO)Oc2ccccc21 [CBK006771]	45.5115
COCc1cccc(Nc2ncnc3c2cnn3CCO)c1 [CBK306214]	83.9996
CC(=O)c1ccc(S(=O)(=O)N2CCCCC2C)cc1 (centres unmarked) [CBK069211]	96.5075
C(=C\c1nccnc1OCc1cccs1)/c1ccccc1 [CBK106883]	95.1156
COc1ccc(S(=O)(=O)NCCN2CCOCC2)cc1Br [CBK269838]	81.1792
CC(C)CC(NC(=O)c1cccnc1)c1nnc2n1CCNCC2 (centres unmarked) [CBK307149]	87.5317
Cc1nn(C)c(Sc2ccccc2)c1[N+](=O)[O-] [CBK002937]	77.6157
O=C(NCC(CO)Cc1ccsc1)N1CCN(c2ccncc2)CC1 (centres unmarked) [CBK306929]	47.2495
Cc1nn(Cc2ccccn2)c(=O)n2cccc12 [CBK283849]	102.373
CCN(CC)C(=O)CNS(=O)(=O)Cc1ccccc1[N+](=O)[O-] [CBK034504]	92.2535
CC(=O)Nc1nc(OCC(F)(F)F)cnc1-c1ccc2c(c1)OCO2 [CBK145427]	89.5409
CCOC(=O)c1[nH]c2ccccc2c1NS(=O)(=O)c1ccc(Br)cc1 [CBK047409]	60.5046
CCOc1cccc(/C=N\NC(=O)C2COc3cc4ccccc4cc3O2)c1O (centres unmarked) [CBK262846]	69.6074
COC(=O)c1ccc(C)c(N(CCO)CCO)c1 [CBK262418]	100.897
CCN(CC)CCOC(=O)c1oc2c3c(ccc2c1C)OCCO3 [CBK008676C]	72.4054
CCOCCn1c(N2CC(C)CC(C)C2)nc2c1c(=O)[nH]c(=O)n2C (centres unmarked) [CBK306200]	52.421
COc1ccc(C)cc1NS(=O)(=O)c1cc(I)c2occc2c1 [CBK078531]	88.6162

Compound	% of control remaining
CSc1ccccc1CNC(=O)c1cc(Br)cnc1N(C)S(C)(=O)=O [CBK076529]	79.057
O=C1NC2(CCC2)C(=O)N1Cc1coc(-c2cccs2)n1 [CBK305209]	81.2927
O=C(Nc1ccccc1)c1ccccc1OCc1ccc(S(=O)(=O)N2CCOCC2)cc1 [CBK267396]	100.271
CC(C)[C@@H](CO)Nc1nc(-c2ccc3ccccc3c2)cn2ccnc12 [CBK037445]	100.913
CN(C)C(=O)NCCNC(=O)c1c[nH]nc1-c1cc2ccccc2o1 [CBK306157]	74.4957
NC(=O)C1CCN(S(=O)(=O)c2ccc([N+](=O)[O-])cc2)CC1 [CBK261455]	95.4312
NS(=O)(=O)c1ccc(C(=O)Nc2cccc3cc[nH]c23)cc1 [CBK160094]	103.607
O=[N+]([O-])c1cc(Nc2ncnc3ccccc23)cc(Oc2ccccc2)c1 [CBK293928]	74.2117
O=C(Nc1ccccc1C(=O)NCCCc1nc2ccccc2[nH]1)c1cccs1 [CBK296641]	109.989
CC(C)(C)C(=O)NC(N(Cc1ccccc1)Cc1ccccc1)C(Cl)(Cl)Cl (centres unmarked) [CBK261023]	114.477
Cc1nn2c(c1-c1ccccc1)NC(=O)CC2C(=O)O (centres unmarked) [CBK287118]	97.1493
O=C(c1ccc2occc2c1)N1CCCC2(CCN(C(=O)c3cc(F)c(F)cc3F)C2)C1 (centres unmarked) [CBK137071]	107.242
COc1cccc(C(O)CN2CCC3(CC2)CC(O)c2cc(Cl)c(C)cc2O3)c1 (centres unmarked) [CBK286342]	75.4746
Cn1cc2c(n1)[C@H]1CN(C(=O)c3cc(C(F)(F)F)n(C)n3)C[C@H]1C2 [CBK283399]	92.324
O=S(=O)(Nc1ccccc1N1CCCCC1)c1ccc(Cl)cc1 [CBK077063]	69.7376
CCOC(=O)CNc1ccc(C(F)(F)F)cc1 [CBK057732]	72.4778
COc1ccc(C)cc1OCCO [CBK001975]	80.778
CCCn1nnc(NC(=O)COc2ccc3ccccc3c2)n1 [CBK265923]	122.665
O=C(CCc1ccc(=O)[nH]n1)N1CCCCC1c1nc2cc(F)ccc2[nH]1 (centres unmarked) [CBK291107]	113.81
CCc1ccc(OC(C)c2nnc(SCC(=O)N3c4ccccc4Sc4ccccc43)n2C)cc1 (centres unmarked) [CBK268058]	109.681
CCN1CCN(c2cc3c(cc2F)c(=O)c(C(=O)NCCOC)cn3C2CC2)CC1 [CBK300529]	0.2384
COc1ccccc1OC(=O)c1ccccc1Cl [CBK090164]	22.4574
Fc1ccccc1Oc1nnnn1-c1ccccc1 [CBK002526]	83.37
O=C(NCc1ccccc1)c1ccco1 [CBK086713]	98.3636
CCCOc1ccc(-c2nnn(CC(=O)OCC)n2)cc1 [CBK068817]	103.897
Cc1noc(C)c1CN1CCN(CC(CC(=O)Nc2ccccc2)C(=O)O)CC1 (centres unmarked) [CBK286858]	67.9168

Source: paper PMC12040169 (PLOS Biology, 2025)
